Experimental data taken from the supplement of paper PMC3334620.
Over roughly 33,000 sequences, “E-score (-0.5 to 0.5)” has its median near -0.036; the highest 2% begin near 0.37. The list shows a part of the results.

molecular target: T1, Yer064c (UniProt P40041); experiment: PBM E-score (8-mer binding enrichment) (E-score (-0.5 to 0.5)); higher = stronger / more preferred TF binding; most listed sequences are background and not binding sites; conditions: protein concentration: 200 nM; construct: GST-full length
T1 sequence: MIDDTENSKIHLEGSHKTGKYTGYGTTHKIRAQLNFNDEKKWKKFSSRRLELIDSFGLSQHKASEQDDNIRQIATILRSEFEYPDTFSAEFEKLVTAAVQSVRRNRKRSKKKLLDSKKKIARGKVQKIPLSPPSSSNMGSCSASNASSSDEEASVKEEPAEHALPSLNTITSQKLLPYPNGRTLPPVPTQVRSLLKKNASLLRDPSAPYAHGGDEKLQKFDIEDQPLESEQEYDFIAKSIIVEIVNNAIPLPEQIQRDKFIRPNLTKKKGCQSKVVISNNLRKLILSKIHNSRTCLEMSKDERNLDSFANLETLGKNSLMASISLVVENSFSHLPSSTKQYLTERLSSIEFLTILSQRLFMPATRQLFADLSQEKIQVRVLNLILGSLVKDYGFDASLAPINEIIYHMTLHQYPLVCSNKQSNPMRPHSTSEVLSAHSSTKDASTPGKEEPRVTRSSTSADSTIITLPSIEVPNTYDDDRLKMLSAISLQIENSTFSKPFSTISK
In short: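 Each ungapped eight-base word and its reverse complement, pooled, received an E-score from the Universal PBM Analysis Suite. Underlying scans, normalised with masliner, recorded fluorescent anti-GST bound to GST-tagged yeast transcription factors. These were applied at about 100-200 nM to universal all-10-mer Agilent arrays double-stranded by primer extension.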

Sequence	PBM E-score
GATGCATA	-0.219
ACTGGTGA	0.108
CCCCCCCA	-0.244
CCTTAATA	-0.108
GGTACAGA	-0.0394
CAAGATAG	-0.0246
GCGATTAC	0.187
CATCCTGC	0.0695
GACCGCGA	-0.0427
CCACTCAC	-0.0373
GCGTGAGA	0.0527
ATTTTTGC	0.0714
ATTGTCGG	0.0139
AACCTTTC	-0.204
CGGAAAAG	0.117
AAGAGAGT	0.221
CTAGAGCC	-0.116
CCACAACC	-0.0752
AACCAGCA	-0.0168
CAATATTC	-0.0819
CTCATTTA	0.243
CCAGGAAC	-0.275
ATGCGGGG	-0.196
CAGGATAA	-0.208
AGGTCCAA	-0.1

Sequence	PBM E-score
AACGGATT	0.0965
GCAATGGC	-0.142
TCAAGGCA	0.0122
CCTCGGAG	-0.164
AGCCAGAA	0.0726
AACTGAAG	0.0115
AGACAGTC	0.24
ACGGTGCA	-0.0944
ACTGGGCG	-0.0675
CTCGGGAC	-0.208
TACTGTGA	0.183
GGGACACC	-0.452
ACGTTGTA	-0.138
CAAGTGCC	-0.312
CCGGACCG	0.00619
TACAAAGA	0.215
ACCGATAG	0.017
AGCAATCC	-0.161
CATCAGAG	0.166
CCGGCGGA	-0.143
GCTTGAAC	-0.0632
GATGCGGA	-0.0711
CGTCCGCC	-0.263
ATAATACC	0.0652
GTCTCTCA	0.181

Sequence	PBM E-score
GGGTGCAC	-0.187
CCAGATCA	0.058
CCTGGAAC	-0.277
AGGTCAAC	-0.0577
GCTAGAAC	0.0611
ATCGTCGA	0.153
CCTGGCCA	-0.288
AAGGATGG	0.0892
GGCTGTAC	-0.082
ATCGACCC	-0.0696
GGGCTGCA	-0.0969
GGTAATGA	0.189
CAAATTAG	0.168
AAATGTTA	-0.0729
AAGAGGGC	-0.249
ACTGTCCC	-0.145
TAGTCGCA	0.412
CGAATGCG	0.0418
CTCAGCCA	0.274
GCCAAAAC	-0.152
CACACCCG	-0.00999
TAATAAAA	0.228
CTGATTTC	0.222
CAGGGCCA	-0.298
ACGATCCT	0.0712

Sequence	PBM E-score
AACGCTAT	-0.253
GAAGTATC	-0.0585
ACTGGGAA	0.0915
ACGTGAGT	0.339
AAGTTATG	0.0309
ATCTACGA	0.145
CAACCAGG	-0.113
AATCGCTC	0.211
CCGGTAGA	-0.0193
TACGACCA	-0.0167
AGAGCACA	0.03
ACCTATAT	0.0832
CCGCGATA	-0.0471
CATTTTAA	0.132
AGCTCCAG	-0.115
GCACGAGA	-0.0587
GCCGGTTA	-0.0775
CAATTAGA	0.135
CACGTGAC	0.133
GCTTTTGA	-0.0379
CATCATGG	0.0236
AATAATCA	0.382
CCATCGGC	-0.128
CTCTTCAC	-0.107
AGAGAACT	-0.0782

Sequence	PBM E-score
CCGGTGTC	-0.0726
ACAGCGTG	-0.0593
ACTTGGTG	-0.0115
GACTTCAA	0.326
CGCACGAA	0.068
AGCCCGAA	-0.104
CAAGTCGA	-0.0228
AAGAGCAG	-0.115
GGTTTATA	0.00611
GATCGTCA	0.0226
ACTCGGAT	0.0489
GCACAACA	-0.0631
TCGCTCCA	-0.0823
AAGCTATG	-0.0849
AGGACGCA	-0.0338
CCCCGCGG	-0.191
GGTCGCTA	-0.197
ACCACTGC	-0.0646
GTAGATAA	0.0955
ATATCAGA	-0.0448
TCCTCCGA	-0.0688
TCGCCGAA	0.0704
CGTGTTTC	-0.179
TAAGTCCA	0.109
ACACAAGT	0.0362

Sequence	PBM E-score
GACGCCCC	-0.35
ATTCTCTA	0.0286
CCAGATGC	0.0961
CCAAAGAC	0.134
ATAACCAG	0.123
ATCGCCAG	0.0156
AATGAGAT	0.0439
AAGCGTAG	-0.094
GCTAGACC	-0.218
ATGCAGGA	-0.0508
CATAGAAA	-0.00929
GTTACGTA	-0.156
CAGGCATG	-0.133
AACGATGT	0.0466
AGCTCCCT	-0.212
GCTCTGGA	0.00623
AGCGATCC	-0.315
CAGCGACG	0.0254
AGGAGACG	-0.273
GCGGGATA	-0.207
CGCAAGAC	-0.0139
CCACACAG	-0.153
ATACATAA	0.136
GCCATATA	-0.0988
GGTAAATA	0.00257

Sequence	PBM E-score
CTTAAGTA	0.141
CCAATTCA	-0.0497
AGCATGGC	-0.119
CATGTGCA	-0.237
AGTTACCA	-0.0239
CCTGTACA	-0.188
ACGGAGGG	-0.244
TCAAATAA	0.129
ATTTCTCA	0.146
AGGGTATA	-0.179
ATGGGTTC	0.0311
ACTGTAGA	0.09
CAGGTCGC	-0.181
CGGGGTAC	-0.155
CTCCTTTC	-0.0828
CAGCGTAC	-0.124
AAGCTTTA	-0.158
ACACTTCC	-0.0311
CCAAGGCA	-0.216
ACCGTGTC	-0.0817
GACCCAAC	-0.048
CTCCGGCA	-0.0651
GGGTCGAC	-0.0797
AATGTCGC	-0.175
ATCACTTG	0.197

Sequence	PBM E-score
GCGGGGGA	-0.205
GGTCGCAA	-0.133
CCATCACC	0.0674
ATATAGGA	0.0351
GCCTATCA	-0.147
ATGTGATC	0.0847
CGTATAAA	0.14
CTACGCGC	0.00965
GCGATTGA	0.145
GCGGTGAC	0.207
TAAGGCCA	-0.227
TCTGCGAA	0.0185
ACAGTTCT	0.0197
CGAGCAAG	-0.0519
ACGTGTCA	0.0212
CAACGCCG	-0.154
CCACAAGC	-0.237
GACTCAGC	0.457
ACTCAGTA	0.343
AAGGCACC	-0.201
CTACTCAA	0.162
CCGTGTAA	-0.0343
CAGCTTTC	-0.126
GCGGGGCA	-0.26
AACAGAAG	0.0362

Sequence	PBM E-score
GACGACCC	-0.217
CTGCTCTC	-0.136
GCATCTAC	-0.0974
CGCCGTAC	-0.113
ACTCCGAG	0.208
GAGGGTAA	-0.142
ACCTCGGG	0.0699
GTTTTATA	-0.0151
ACGATTCT	0.212
ACTCAATG	0.302
GACAGATC	-0.104
ACAAAACC	-0.058
CATTTATC	0.0854
AACTCCCT	-0.0645
AAGCGGAG	-0.207
CGCGACAG	-0.0559
CGCACAGA	-0.282
CTCCGTAA	-0.0364
CCCATCTC	-0.192
